The campaign covered roughly 310,000 compounds. About 2,200 (0.71%) showed an effect of 50% or more. The effect is printed as a negative number. The list shows a part of the results.
These molecules were tested against human ether-à-go-go-related gene (hERG) potassium channel (human, UniProt Q12809) (assay: primary screen, population patch clamp on CHO cells stably expressing hERG).
Chain of human ether-à-go-go-related gene (hERG) potassium channel (Q12809 whole entry, looked up): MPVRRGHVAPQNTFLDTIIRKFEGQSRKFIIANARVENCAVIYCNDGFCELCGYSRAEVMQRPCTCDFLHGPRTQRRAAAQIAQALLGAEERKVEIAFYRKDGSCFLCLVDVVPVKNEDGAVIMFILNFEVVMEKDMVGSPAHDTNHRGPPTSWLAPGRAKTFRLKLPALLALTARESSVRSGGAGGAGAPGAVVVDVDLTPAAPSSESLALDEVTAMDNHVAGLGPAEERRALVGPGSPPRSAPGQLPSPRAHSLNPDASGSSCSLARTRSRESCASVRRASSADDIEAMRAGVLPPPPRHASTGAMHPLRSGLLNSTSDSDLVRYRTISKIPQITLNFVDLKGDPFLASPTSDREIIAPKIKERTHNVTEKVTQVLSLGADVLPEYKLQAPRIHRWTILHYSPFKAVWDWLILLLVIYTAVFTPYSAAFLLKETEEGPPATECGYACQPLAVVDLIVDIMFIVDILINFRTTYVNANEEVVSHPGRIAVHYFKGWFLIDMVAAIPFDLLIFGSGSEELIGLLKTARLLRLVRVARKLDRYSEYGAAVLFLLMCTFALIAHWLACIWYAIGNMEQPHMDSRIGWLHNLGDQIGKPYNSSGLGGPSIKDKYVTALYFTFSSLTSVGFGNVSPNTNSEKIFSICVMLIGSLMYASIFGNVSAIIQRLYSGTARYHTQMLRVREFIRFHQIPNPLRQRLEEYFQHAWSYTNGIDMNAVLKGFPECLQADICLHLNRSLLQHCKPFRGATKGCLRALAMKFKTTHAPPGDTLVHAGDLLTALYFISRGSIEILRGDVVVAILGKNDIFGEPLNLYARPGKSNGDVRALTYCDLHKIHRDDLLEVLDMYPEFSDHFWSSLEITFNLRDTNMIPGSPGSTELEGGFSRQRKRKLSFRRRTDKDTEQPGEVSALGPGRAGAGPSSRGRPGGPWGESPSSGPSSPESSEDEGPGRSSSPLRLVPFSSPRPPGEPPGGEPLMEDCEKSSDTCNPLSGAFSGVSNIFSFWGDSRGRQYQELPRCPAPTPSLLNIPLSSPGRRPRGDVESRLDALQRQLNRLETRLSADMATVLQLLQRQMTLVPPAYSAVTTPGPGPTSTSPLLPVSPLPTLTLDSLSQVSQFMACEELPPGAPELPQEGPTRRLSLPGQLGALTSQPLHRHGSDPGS

Compound	hERG current change (%, negative = inhibition) at 1uM [%]
Cc1cc(OCC(=O)c2ccc(Br)cc2)ccc1N1C(=O)CCC1=O	15.9
CCc1nc2ccc(C(=O)N3CCN(CC)CC3)cc2nc1CC	14.2
Cc1cc(Nc2ccc(C)c(Cl)c2)nc(N2CCOCC2)n1	3.46
CC1CN(S(=O)(=O)c2cn(C)c(=O)n(C)c2=O)CC(C)O1 (stereo not shown)	9.46
CCC(=O)Nc1nnc(SCC(=O)Nc2ccc(F)cc2)s1	10.1
CC(C)(C)c1ccc(C(=O)NNC(=S)NCc2ccco2)cc1	11.2
CCc1c(C(=O)c2ccc(Cl)cc2)oc2c(C)c3oc(=O)cc(C)c3cc12	4.83
CN(C)S(=O)(=O)Nc1cc(Cl)cc(Cl)c1	9.9
COc1ccc(-c2nc(NC(=O)CCNC(=O)c3ccco3)sc2C)cc1	-2.49
COc1cc(/C=C/c2nc3ccccc3c(=O)n2-c2cccc(O)c2)ccc1O	-4.12
CCn1c(SCc2nc3ccccc3s2)nnc1-c1ccccc1	5
CCN(Cc1ccccc1)C(=O)CCS(=O)(=O)c1cc2c(cc1Cl)NC(=O)CO2	-6.56
COc1cc(NC(=O)CSc2ncccc2C(=O)OC(C)C)cc(OC)c1	-1.58
COC(=O)[C@H](Cc1ccccc1)NC(=O)N1CC(C)OC(C)C1 (stereo partly shown)	-1.39
C/C(=N\NC(=O)CNC(=O)c1cccc(F)c1)c1ccc2ccccc2c1	5.42
CN(Cc1cccc(C(F)(F)F)c1)Cc1nc(-c2cnccn2)no1	6.64
COc1ccc(NC(=O)CN2C(=O)COc3ccc(C)cc32)c(OC)c1	13
O=C(O)c1cccc(N/C(=N\S(=O)(=O)c2ccccc2)c2ccccc2)c1	5.12
COc1ccc(S(=O)(=O)Nc2ccc(Cc3ccncc3)cc2)cc1C	0.33
CC(=O)N1CC(C)Sc2ccc(S(=O)(=O)NC3CCCCC3)cc21 (stereo not shown)	1.74

Compound	hERG current change (%, negative = inhibition) at 1uM [%]
Cc1ccc(NC(=O)CSc2nc(N)cc(=O)[nH]2)cc1Cl	10.4
CCc1ccc(S(=O)(=O)Nc2ccccn2)cc1	3.37
C/C(=N\NC(=S)NCc1ccccc1)c1ccc(Cl)s1	6.96
COc1cccc(NC(=O)Cn2cc(C=O)c3ccccc32)c1	15.6
Cc1nc2ccccc2c(=O)n1/N=C/c1ccc(O)c(O)c1O	7.68
Cc1cc(OC(C)C(=O)NCc2ccccn2)c2c(C)c(C)c(=O)oc2c1 (stereo not shown)	9.68
C/C(=N\OCC(=O)Nn1c(=O)[nH]c2ccccc2c1=O)c1ccccc1	7.94
CCn1c(C(=O)O)c(CC(=O)Nc2cccc(C(F)(F)F)c2)c2ccccc21	10.5
CC(Sc1nnnn1-c1cccc(F)c1)C(=O)NC1CCCC1 (stereo not shown)	-0.899
CC1=CC(=C(C#N)C#N)c2ccccc2N1C	1.58
O=C(NCCc1ccccn1)C1CCCN(S(=O)(=O)Cc2ccccc2)C1 (stereo not shown)	13.3
CCOc1ccc(NC(=O)c2ccc(NC(=S)NC3CC3)cc2)cc1	8.57
O=C(/C=C/c1ccc2c(c1)OCO2)NC1CCCC1	11.4
CC(NC(=O)c1ccco1)C(=O)OCc1cccc(Cl)c1 (stereo not shown)	-6.37
Cc1occc1-c1nnc(SCC(N)=O)o1	12.2
O=C(CSc1n[nH]c(-c2ccco2)n1)Nc1ccc(Br)cc1	11.8
CN1CCN(C(=O)CSc2nnc(COc3ccccc3)o2)CC1	6.98
COC(=O)c1nc2n(n1)C(c1ccc(OC)c(OC)c1OC)C1=C(CCCC1=O)N2 (stereo not shown)	4.78
N#Cc1cc(C(=O)c2cc(Br)ccc2O)cn(C2CCCCC2)c1=O	7.54
CCC(C)c1ccccc1N1CC(C(=O)Nc2cccc(S(=O)(=O)N3CCOCC3)c2)CC1=O (stereo not shown)	-18.1

Compound	hERG current change (%, negative = inhibition) at 1uM [%]
Cn1nnc(NC(=S)NC(=O)c2ccccc2)n1	1.53
Cc1nnsc1C(=O)Nc1cccc(Cl)c1C	7.91
COc1ccc(Cl)cc1NC(=O)CSc1nc(C)cc(C)n1	4.58
CCOc1ccc(CCN2C(=O)c3cccnc3C2=O)cc1OCC	7.23
COc1cccc(C2=NOC(C(=O)NCc3cccs3)C2)c1 (stereo not shown)	15.9
COc1ccccc1Nc1nc(NCCCN(C)C)nc(N)c1[N+](=O)[O-]	-9.79
CCNc1ccc(C(=O)OCC)cc1NC(=O)c1cccc(N(C)C)c1	10.2
O=C(Nc1ccc2c(c1)nc1n2CCCCC1)c1cc(S(=O)(=O)N2CCOCC2)ccc1Cl	0.302
O=[N+]([O-])c1ccccc1S(=O)(=O)Nc1cccc(-c2ccc(N3CCOCC3)nn2)c1	5.48
CN1CCCC(CC2Oc3ccccc3Sc3ccccc32)C1.O=C(O)C(=O)O (stereo not shown)	-22.9
CCCc1nnc(NC(=O)CN2C(=O)c3ccccc3C2=O)s1	-1.25
Cc1cccn2cc(CCNC(=O)c3ccco3)nc12	11.1
CC(Sc1ccc(Cl)cc1)C(=O)NNC(=O)c1csc(N2CCOCC2)n1 (stereo not shown)	1.95
N#Cc1c(C(F)(F)F)cc(C2CC2)nc1N1CCCC1	18.1
NC(=O)C1=C[C@H](c2ccc(C(F)(F)F)cc2)C[C@H](OCCCCO)O1	-0.169
CC(NC(=O)COc1ncnc2cc([N+](=O)[O-])ccc12)c1ccccc1 (stereo not shown)	4.53
N#Cc1nc(-c2ccc(F)cc2)oc1N1CCCCC1	10.8
Nc1nnc(-c2cccnc2)s1	-3.67
